# Among all 310,000 compounds or so, about 14,000 (4.5%) showed an effect of 50% or more. The effect is printed as a negative number. The list shows a part of the results.
# Molecular target: human ether-à-go-go-related gene (hERG) potassium channel (human, UniProt Q12809)
# Experiment: primary screen, population patch clamp on CHO cells stably expressing hERG
# 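Also: peak tail current of the secondary pulse compared with the same well before compound.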
# human ether-à-go-go-related gene (hERG) potassium channel, sequence (Q12809 whole entry, looked up): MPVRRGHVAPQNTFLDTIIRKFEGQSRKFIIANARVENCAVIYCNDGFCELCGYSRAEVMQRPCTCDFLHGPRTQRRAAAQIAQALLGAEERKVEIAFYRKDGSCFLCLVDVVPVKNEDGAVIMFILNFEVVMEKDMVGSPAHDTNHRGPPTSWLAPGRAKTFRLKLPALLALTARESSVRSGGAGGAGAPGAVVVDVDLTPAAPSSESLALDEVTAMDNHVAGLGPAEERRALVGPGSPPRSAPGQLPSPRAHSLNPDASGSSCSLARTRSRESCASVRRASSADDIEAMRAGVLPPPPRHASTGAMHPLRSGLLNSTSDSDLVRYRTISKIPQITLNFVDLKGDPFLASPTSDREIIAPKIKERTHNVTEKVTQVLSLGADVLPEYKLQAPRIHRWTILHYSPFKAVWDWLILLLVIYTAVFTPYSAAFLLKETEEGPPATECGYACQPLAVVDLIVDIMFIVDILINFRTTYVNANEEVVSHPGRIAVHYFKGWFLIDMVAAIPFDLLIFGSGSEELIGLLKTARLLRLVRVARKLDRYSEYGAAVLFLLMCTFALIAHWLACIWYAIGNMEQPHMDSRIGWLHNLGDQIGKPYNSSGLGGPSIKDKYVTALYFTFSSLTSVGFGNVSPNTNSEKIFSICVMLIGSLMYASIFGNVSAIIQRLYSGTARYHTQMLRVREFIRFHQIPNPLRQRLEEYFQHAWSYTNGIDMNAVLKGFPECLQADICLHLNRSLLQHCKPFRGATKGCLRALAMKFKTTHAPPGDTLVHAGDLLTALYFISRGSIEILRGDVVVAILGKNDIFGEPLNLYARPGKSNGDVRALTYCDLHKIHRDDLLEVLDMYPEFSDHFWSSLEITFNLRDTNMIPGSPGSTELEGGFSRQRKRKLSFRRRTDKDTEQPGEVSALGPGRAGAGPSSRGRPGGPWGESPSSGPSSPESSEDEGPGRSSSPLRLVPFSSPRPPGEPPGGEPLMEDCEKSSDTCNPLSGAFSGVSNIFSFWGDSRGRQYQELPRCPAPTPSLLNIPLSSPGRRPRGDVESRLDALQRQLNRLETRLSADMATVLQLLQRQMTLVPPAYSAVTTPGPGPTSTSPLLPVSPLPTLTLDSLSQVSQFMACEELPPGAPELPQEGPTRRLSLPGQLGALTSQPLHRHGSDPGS
row,Compound,"hERG current change (%, negative = inhibition) at 10uM [%]"
1,O=C(O)c1ccc(Cn2cc(/C=C\[N+](=O)[O-])c3ccccc32)o1,26.1
2,COc1cccc(CN2CCCC(CNC(=O)c3ccc(F)cc3)C2)c1OC (centres unmarked),-49.1
3,COCCn1c(C)cc(C(=O)COC(=O)c2cncc(Br)c2)c1C,-31.3
4,O=C(O)C1CC=CCC1C(=O)NNS(=O)(=O)c1ccccc1 (centres unmarked),11.5
5,CCOC(=O)/C=c1\s/c(=C\c2ccc(C)cc2)c(=O)n1CC(=O)NCc1ccco1,11.7
6,O=C(NCCc1c[nH]c2ccccc12)C(=O)c1c[nH]c2ccccc12,4.25
7,Cc1ccc2c(c1)NC(=O)c1cc([N+](=O)[O-])ccc1O2,26.1
8,N#Cc1ccc(Cl)cc1NC(=O)COC(=O)c1ccc(S(=O)(=O)N2CCCC2)cc1,0.0498
9,Cc1cccc(C)c1NC(=O)Cn1nc(C)n2cccc2c1=O,1.19
10,COC(=O)c1c(NC(=O)COC(=O)[C@@H](NS(=O)(=O)c2ccccc2)C(C)C)sc2c1CCC2,0.637
11,Cc1cc(NC(=O)COC(=O)[C@H](C)NC(=O)c2ccccc2)no1,7.21
12,Cn1ncc(Br)c1C(=O)OCC(=O)Nc1nc(-c2ccccc2)cs1,9.93
13,COc1ccc(CNC(=O)CCC(=O)N2C[C@H]3C[C@H](C2)c2cccc(=O)n2C3)cc1,3.43
14,CC(c1ccccc1)n1c(SCC(=O)Nc2ccccc2)n[nH]c1=O (centres unmarked),8.88
15,O=C(NCCN1CCc2ccccc2C1)C1CC(=O)N(C2CCCC2)C1 (centres unmarked),7.08
16,Cc1ccccc1NS(=O)(=O)c1cc(S(C)(=O)=O)ccc1Cl,-5.25
17,COc1ccccc1C(=O)Nc1ccnn1C1CCN(C)CC1,-32.7
18,COCCCn1c(SCC(=O)Nc2ccccc2F)nnc1-c1ccoc1C,15.7
19,COC(=O)c1ccc(C2NC(=O)c3ccccc3O2)cc1 (centres unmarked),15.9
20,O=C(NCc1ccccc1)c1onc(CSc2ccc(Cl)cc2)c1C(=O)NCC1CC1,3.93
21,CN(C)C(=O)N1CCC(C(=O)NCC2CCCO2)CC1 (centres unmarked),7.74
22,O=S(=O)(Nc1ccncc1)c1ccc(Cl)c(Cl)c1,18.4
23,CCOC(=O)CCc1c(C)nc(SCC(=O)O)c(C#N)c1C,-2.59

row,Compound,"hERG current change (%, negative = inhibition) at 10uM [%]"
1,CCOC(=O)/C(=N\Nc1ccccc1Cl)N(C)C1CCS(=O)(=O)C1 (centres unmarked),-15.9
2,CCOc1ccc(/C=C2\SC(N3CCc4ccccc4C3)=NC2=O)cc1,4.69
3,O=C(NC(=S)NC(=O)c1ccccc1F)c1ccccc1F,0.534
4,O=C(Cc1ccccc1)Nn1cnc2ccccc21,-0.197
5,COc1cccc(-c2nc3n(n2)C(c2ccccc2Cl)C(C(N)=O)=C(C)N3)c1 (centres unmarked),-11.4
6,CCOC(=O)C1(C(C)(C)CC)CC(CSc2nc3ccccc3[nH]2)OC1=O.Cl (centres unmarked),-36.6
7,Cc1ccc(C(=O)NNc2c3ccccc3nc3ccccc23)cc1,9.56
8,COc1ccc(NC2SC(=O)N(C)C2=O)cc1 (centres unmarked),1.36
9,CN1CCN(CCCCOc2ccccc2-c2ccccc2)CC1.O=C(O)C(=O)O,-38.2
10,COc1ccc(CNc2ccccc2SC)cc1OC,0.625
11,Cc1c(CCO)c(=O)[nH]n1C(=O)c1c(F)cccc1F,-1.76
12,COc1ccc(NC(=O)COc2cccnc2[N+](=O)[O-])cc1OC,9.27
13,Cc1ccccc1-c1nnn(CC(=O)c2ccc(S(=O)(=O)N3CCCC3)cc2)n1,14.5
14,COC(=O)C(C)N1CCC(=O)c2ccccc2S1(=O)=O (centres unmarked),14.9
15,COc1cccc(/C=C2\SC(=S)N(CCC(=O)NC3C=CS(=O)(=O)C3)C2=O)c1 (centres unmarked),6.17
16,CCNCCNC(=O)c1c(O)c2ccccc2n(CC)c1=O.Cl,1.76
17,O=C(c1cc(Br)c[nH]1)N1CCCCC1,17.1
18,O=C(NC1CC1)C1CC(=O)N(c2ccc(F)cc2)C1 (centres unmarked),19.1
19,CCCn1c(SCC(=O)N2c3ccc(F)cc3CCC2C)nnc1-c1ccccn1 (centres unmarked),-14.7
20,NC(N)=NC(N)=Nc1ccc2ccccc2c1,17.7
21,Cc1nc2n(c(=O)c1CCN1CCC(c3noc4cc(F)ccc34)CC1)CCCC2,-68
22,COc1ccc(Cc2nnc(NC(=O)c3cccc(F)c3)s2)cc1OC,10.1
23,O=C(Nc1ccccc1CC[N+](=O)[O-])N1CCN(c2ccccc2)CC1,2.62

row,Compound,"hERG current change (%, negative = inhibition) at 10uM [%]"
1,Cc1nc2cc(C(=O)N3CCC4(CC3)OCCO4)ccc2n1-c1ccc(Br)cc1,-26.9
2,O=C(c1cccc2cccc(O)c12)N1CCCCC1,-6.31
3,COc1ccc(NC(=O)c2ccccc2OCc2c(C)noc2C)cc1OC,-37.5
4,Cc1nn(-c2ccccc2)c2c1C(=O)N(Cc1ccccc1)C(=O)C(C)(C)C2,-15.2
5,CCOc1ccc(NC(=O)CSc2nnc(C3CC3)n2N)cc1,8.79
6,COc1cc(CN2CCC(C(=O)N3CCC(C)CC3)CC2)cc(Br)c1O.O=C(O)C(=O)O,-35.9
7,O=C(OCc1nnc(-c2ccccc2)o1)c1ccc2c(c1)OCCO2,-8.29
8,COC(=O)C1=C(C)NC(C)=C(C(=O)OC)C1C(=O)OCC(=O)c1ccc(Br)cc1,-30.3
9,CS(=O)(=O)N(CC(=O)Nc1cccnc1)c1ccc2c(c1)OCO2,2.43
10,O=c1c2[nH]cnc2n(-c2cccc(F)c2)c(=O)n1Cc1ccccc1,-10.3
11,Cc1cc(C)n2nc(SCc3ccccc3F)nc2n1,6.67
12,CCOc1ccc(N2C(=O)CC(NCC#N)C2=O)cc1 (centres unmarked),15.8
13,O=C1C(=O)N(CCN2CCOCC2)C(c2cccnc2)/C1=C(/O)c1ccc(Cl)cc1 (centres unmarked),18.6
14,O=C(Nc1ccccc1Cl)NC1(C(=O)NCc2cccnc2)CCCCC1,15.8
15,O=C(Nc1ccc(F)cc1)c1cccnc1NCCc1ccccc1,-13.3
16,N#CCCn1cc(C(N)=O)c(-c2cccs2)n1,20.5
17,COc1ccc(CCn2ccc(O)c(Cc3ccc(Cl)cc3)c2=O)cc1OC,10.3
18,CN(C)C(=O)CSc1nnc(-c2cc(-c3cccs3)nc3ccccc23)o1,-1.64
19,O=C(N/N=C/C(Br)=C/c1ccccc1)c1ccccc1[N+](=O)[O-],13.8
20,COc1ccc2[nH]c(CN3CCN(CC(C)C)C(CCO)C3)c(C)c2c1 (centres unmarked),5.18
21,CCN1C(=O)C(CC(=O)Nc2ccc(F)cc2)N(CCc2ccc(OC)cc2)C1=S (centres unmarked),-0.637
22,COc1cc(OC)c(OC)cc1/C=N/NC(=O)CC1C(=O)NN=C1C (centres unmarked),1.16
23,Cc1cc(C)n2c(SCC(=O)Nc3ccc(F)cc3)nnc2n1,9.45

row,Compound,"hERG current change (%, negative = inhibition) at 10uM [%]"
1,COc1cc(NC(=O)CN2CCN(c3ccccc3O)CC2)c(C)cc1[N+](=O)[O-],18.5
2,Cc1cc(Cc2ccc([N+](=O)[O-])cc2)c(C)cn1,-57.8
3,COc1ccccc1-n1c(SC(C)C(=O)NCC2CCCO2)nc2cc(Cl)ccc2c1=O (centres unmarked),0.554
4,Cc1nonc1NC(=O)CSc1nc(CCC2CCCC2)nc2ccccc12,3.64
5,O=[N+]([O-])c1ccc(N=Cc2sc3ccccc3c2O)cc1,15.3
6,Fc1ccc(CSc2ncnc3c2oc2ccccc23)cc1,0.614
7,COc1cccc(-c2c(C(=O)N/N=C/C3CC=CCC3)nnn2-c2nonc2N)c1 (centres unmarked),2.44
8,Cc1ccc2nc(C3CCCCC3)[nH]c2c1,-2.01
9,O=C(O)c1ccccc1C(=O)NCCCCCCNC(=O)c1ccccc1C(=O)O,7.63
10,NC(=O)c1ccsc1NC(=O)COC(=O)c1ccc(Cl)nc1,5.07
11,CCN(CC)S(=O)(=O)c1cc(NC(=O)CSc2nccn2C)ccc1C,-1.59
12,CN1CCC(OC(=O)COc2ccc(Br)cc2)CC1.Cl,-30.2
13,COc1ccc(NC(=O)C23CCC(C)(C(=O)O2)C3(C)C)cc1 (centres unmarked),3.14
14,CCOC(=O)CCc1c(C)c2ccc(OCc3nn[nH]n3)cc2oc1=O,20
15,O=C(Nc1ccc(Cl)cc1)NC1CCCCC1,6.51
16,COc1ccc(N2CCN(C(=O)CN3CCN(c4nc(-c5ccc(F)cc5)cs4)CC3)CC2)cc1,-1.23
17,COc1ccc2oc(=O)cc(CN3CCN(Cc4ccc(OC)c(OC)c4OC)CC3)c2c1,-39.7
18,O=C(c1ccc(S(=O)(=O)N2CCOCC2)cc1)N1CCc2ccccc21,26.2
19,COc1ccccc1NC(=O)C(=O)NCCCN1CCCC1=O,-0.852
20,Cc1cc(NCc2ccccn2)nc2ccccc12,-15.4

# — publication PMC4336329 (PLoS ONE, 2015)
